# In all, about 150,000 compounds went through this assay and about 540 (0.36%) showed an effect of 50% or more. This is one part of the list.
# System: Plasmodium falciparum
# Test: Primary screen in NF54 nanoGlo assay, in single point, at 2uM, 72h; a lower Z score goes with more inhibition
# Format: functional, Erythrocyte
# Conditions: timepoint 72 hour
SMILES,% Inhibition,Z score
CCN1CCN(Cc2cc3n(n2)CCN(C(=O)c2cccc4ccnn24)C3)CC1,-3%,0.42
NC(=O)[C@@H]1CN(Cc2csc3c(Cl)cccc23)CCO1,10%,-0.85
Cc1cc(C)c(C(=O)Cn2nc3ccc(-c4ccc(Cl)cc4)nn3c2=O)c(C)c1,33%,-0.89
COc1ccc(C)cc1CN[C@@H](C)c1nnc2n1CCC2,-12%,1.69
C[C@]1(NC(=O)Nc2ccc(C3CCC3)cn2)CCS(=O)(=O)C1,-7%,0.9
NC(=O)C[C@H]1CCCN(c2ncc(-c3ccccc3)s2)CC1,-11%,1.56
CO[C@@]12CC[C@H](O)C[C@@H]1N(C(=O)c1cc(=O)n(-c3ccccc3)[nH]1)CC2,-3%,0.47
COC(c1ccc(-c2cc(C)ccc2CO)cc1)C(C)N (stereo not drawn),-2%,0.31
O=C(NCc1ccccn1)c1ccc2c3c(cccc13)CC2,3%,-0.38
COC(=O)C(NCc1cnc(C)s1)C(C)O (stereo not drawn),38%,-1.02
O=S(=O)(c1ccc2[nH]cnc2c1)N1C[C@@H]2CC[C@H]1CN(Cc1ccccc1)C2,-10%,1.29
ClC1(Cl)C[C@@H]1Cn1c(C2CC2)nc2ccccc21,3%,-0.48
COc1cnc(NC(=O)NC2CCS(=O)(=O)CC2)s1,0%,-0.04
O=C1C[C@@H](c2ccccc2)N(C(=O)c2cccc3cc[nH]c23)CCN1,-9%,1
CC(C)[C@H]1CCCN(C(=O)CCc2cncs2)CC1,-11%,1.52
Cc1cc(-c2ccc(C(=O)N(CC3CC3)C[C@H]3CCCO3)cc2)nc(C)c1C#N,-8%,0.96
N#Cc1ccccc1C(=O)N1C[C@@H]2CC[C@H]1CN(C(=O)c1cnccn1)C2,1%,-0.24
CN(C)C(=O)[C@@H]1CCCN1c1ccc2ccc(F)cc2n1,-5%,0.75
Cc1cc(CN2CCCC[C@H]2c2ncc[nH]2)no1,-8%,1.22
CCc1[nH]c2c(CNC(=O)c3ncccc3OC)cc(F)cc2c1C,-3%,0.28
COc1ccccc1C(O)CNC(=O)[C@H](O)c1ccccc1Cl (stereo partly drawn),-7%,0.89
CC(C)N(CCO)C(=O)Nc1cccnc1,3%,-0.41
O=C(c1ccc2nc(-c3ccccc3)cn2c1)N1C[C@H]2CCC[C@@]2(CO)C1,7%,-0.94
COc1ccc(CCNC(=O)c2c(O)c3cc(F)cc4c3n(c2=O)[C@@H](C)CC4)cc1OC,-4%,0.36
CN(c1ccccc1)c1nc(N2CCCCC2)nc(-n2ccnc2)n1,-1%,0.1
CC1(C(=O)N2CCCC(CCC(=O)O)C2)CC1(F)F (stereo not drawn),6%,-0.81
O=S(=O)(c1ccccc1)N1CCC(OCCOc2cccnc2)CC1,-7%,1.14

SMILES,% Inhibition,Z score
Cc1nn(C)c(N(C)C)c1CN[C@@H](CC(C)C)C(=O)N(C)C,-8%,1.05
Cc1cc(Cl)ccc1OCC(=O)N1CCN(c2nc3ccncc3n(C)c2=O)CC1,-4%,0.42
Cc1cc(C(=O)Nc2ccc3ccccc3c2)co1,37%,-4.78
Cc1ncccc1CNCCn1cccn1,-9%,0.91
C[C@H](Nc1ccn(CC(F)F)n1)C1CCN(C)CC1,-5%,0.81
CC(C)[C@H]1CC[C@H](C(=O)N[C@@H](Cc2ccccc2)C(=O)Nc2cnn(C)c2)CC1,-10%,1.26
CCN(CC)CCn1cnc2c1c(=O)[nH]c(=O)n2Cc1ccccc1,-1%,0.09
FC1(F)CC12CCC(Nc1nccn3cncc13)CC2 (stereo not drawn),-5%,0.74
Cc1cncc(C(=O)N2CCCC[C@@]2(C)c2noc(C3CC3)n2)c1,-15%,1.98
CN(c1ccn(C)n1)S(=O)(=O)CC1(C(=O)OC(C)(C)C)COC1,-7%,1.31
Cc1c(C(=O)NCCc2ccc(Cl)cc2)cccc1-n1cnc2cccnc21,-5%,0.76
N#Cc1cccnc1N1CCC[C@H](CN2CCCCCC2)C1,-3%,0.28
O=C1CN(Cc2ccccc2)C(=O)[C@H](Cc2ccc(O)cc2)N1,-7%,1.38
CC(C)(C#N)C(=O)NCC1(c2ccccc2)CC1,-2%,0.19
CC(C)NC(=O)NC[C@H]1Cn2c(-c3ccc(Cl)cc3)cnc2CO1,29%,-3.28
O=C(NCCn1ccnc1-c1ccc2c(c1)OCO2)c1cccnc1,10%,-1.94
CC1CCN(C(=O)c2ccc(NCCCS(C)(=O)=O)nc2)CC1,-14%,2.31
C[C@@]1(C(=O)NC2CCCC2)Cn2c(ccc2-c2ccco2)C(=O)N1Cc1ccco1,-12%,1.11
Cc1nc(-c2cc(S(=O)(=O)N(C)C3CCCCC3)c(C)n2C)sc1C(=O)N1CCOCC1,-7%,0.8
Cc1cc(Cl)ccc1OCC(=O)Nc1[nH]ncc1-c1ccc2c(c1)OCO2,-6%,1.03
COc1ccc(C(=O)N2CCCN(CC3CC3)[C@H](C(C)C)C2)c(O)c1,-10%,1.22
COc1ccc(OCC(F)(F)C(F)F)c(C(=O)N(C)C)c1,11%,-1.57
CCC1(CC)O[C@@H](c2ccc(OC)c(OC)c2OC)Nc2ccccc21,10%,-1.23
C[C@H](Oc1ccc(N(C)C(N)=O)cc1)c1cccc(C#N)c1,-7%,0.95
COc1ccc2c(c1)CN(C(=O)C1(OC)CS(=O)(=O)C1)CCO2,-4%,0.72
CCS(=O)(=O)Oc1cccc(CN(CC(C)C)C(=O)CC(C)C)c1,0%,-0.07
Cc1ncccc1C(=O)N1CCC2(CCc3nn(Cc4ccccc4)c(=O)n3CC2)CC1,10%,-1.15

# From ChEMBL document CHEMBL4888484, “Replenishing the malaria drug discovery pipeline: Screening and hit evaluation of the MMV Hit Generation Library 1 (HGL1) against asexual blood stage Plasmodium falciparum ,using a nano luciferase reporter read-out” (2022)
